From ChEMBL document CHEMBL1201862, “PubChem BioAssay data set” (2004) come the findings set out here.

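Cells were grown in 96-well plates and exposed to each compound for 48 hours at five concentrations; endpoints were interpolated linearly between bracketing concentrations, or set to the highest concentration if not reached. GI50 marks 50% less growth.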 Calls of active or inactive are those of the source. No stated cut-off is given here; in the data, active = GI50 up to about 1.1 µM and inactive = higher. Some results are limits rather than exact numbers.

The test system of this assay is NCI-H322M. In words: NCI-60 cell line screen, 48 h.
Take `C/C(=N\N=C(\N)S)c1ccc(Oc2ccccc2)cc1`: the GI50 is inactive: 15.3 µM. With `COc1cc2c(c(OC)c1OC)-c1ccc(SC)cc1C(=O)CC2`, the GI50 is active: < 0.01 µM. Take `Oc1ccc2ccccc2c1/N=N/c1ccc(F)cc1`: the GI50 was inactive: > 100 µM. Consider `c1ccc(CSc2nnc3c4ccccc4c4ccccc4c3n2)cc1`, for which the GI50 is inactive: > 100 µM. With `Cc1cc(O)c(C(C)C)cc1CN1CCCCC1`, the GI50 was inactive: > 100 µM. Consider `Oc1c(Cl)ccc2cccnc12`, for which the GI50 is inactive: 7.57 µM.

On to `N=C(N)SCCc1ccncc1`, for which the GI50 is inactive: > 100 µM. As for `O=C(O)CCc1c2ccc(=O)c(O)c-2oc2c(O)c(O)ccc12`, the GI50 was inactive: 33.9 µM. With `CCOC(=O)c1c(C)c(C)n2c1NC(=O)C2` the figure was inactive: > 100 µM. With `O=S(=O)(c1ccc2ccccc2c1)N1CCN(S(=O)(=O)c2ccc3ccccc3c2)CC1` the figure was inactive: > 100 µM. Regarding `CCCCNc1c(CN)cnc2cc(Cl)ccc12`, the GI50 is inactive: 17.1 µM.

`Cc1ccc(NC(=O)C(=O)Cc2nc3ccccc3o2)c(C)c1`: the GI50 was inactive: > 100 µM. For the compound `COc1cc(Cn2c3c(c4c(C(=O)NCCN(C)C)c(O)ccc42)C(=O)c2ccccc2C3=O)cc(OC)c1`, the GI50 was inactive: 1.69 µM. Take `O=C1/C(=C/c2ccccc2)CN(C(=O)/C=C/c2ccccc2)C/C1=C\c1ccccc1`: the GI50 was inactive: 34.4 µM. Turning to `COc1cc2c(/C=C3/C(=O)Nc4ccc(O)cc43)c(Cl)[nH]c2cc1C`, the GI50 is inactive: 1.82 µM. Consider `CC(=O)C(CN(C)C)C(c1ccccc1)c1c(O)c2ccccc2oc1=O` (centres undefined), for which the GI50 is inactive: > 100 µM.

Take `S=C1c2ccccc2N=C(NC2CCCC2)C2CSCN12` (centres undefined): the GI50 is inactive: > 100 µM. With `COc1cccc(/C=C2\S/C(=N/Nc3nc(-c4ccc([N+](=O)[O-])cc4)cs3)NC2=O)c1O` the figure was inactive: 20.3 µM.

In the case of `Cc1cc2oc(=N)c(C#N)c(C)c2cc1C`, the GI50 was inactive: 85.9 µM. With `CN(C)c1nc(-c2ccccc2)c(C(=O)c2c[nH]c3ccccc23)s1` the figure was inactive: 39.7 µM.

`Clc1ccc(C(Cc2ccccc2)c2c(Cl)nc(N3CCNCC3)nc2Cl)cc1` (centres undefined): the GI50 is inactive: 19.7 µM. Under `COc1cc(C(=O)N(Cc2cccnc2)C(=S)N(Cc2cccnc2)C(=O)c2cc(OC)c(OC)c(OC)c2)cc(OC)c1OC` stands inactive: 77.6 µM.

For `CCCCNC(=S)Nc1nc(C(=O)NNC(=S)NCC)cs1`, the GI50 is inactive: 98.2 µM.

Turning to `Cc1nc2ccc(Cl)cc2c2c1CCN2c1ccc(F)cc1`, the GI50 is inactive: 45.9 µM.

As to `CCCn1c(=O)c2ccccc2[n+]2c(-c3ccc([N+](=O)[O-])cc3)csc12`, the GI50 was inactive: 38.3 µM. With `c1cc2nnnn2nc1N1CCCC1` the figure was inactive: > 100 µM; with `O=c1c(O)c(-c2cc(O)c(O)cc2O)oc2cc(O)c(C3OC(CO)C(O)C(O)C3O)c(O)c12` (centres undefined), inactive: > 100 µM. `O=C(/C=C\c1cccc2ccccc12)c1cccc2ccccc12`: the GI50 is inactive: 3.15 µM. Regarding `O=C(O)c1cc2ccccc2c(/N=N/c2ccc(S(=O)(=O)O)cc2)c1O`, the GI50 was inactive: > 100 µM.

In the case of `c1ccc(/C(=N/Nc2ccccn2)c2ncccn2)cc1`, the GI50 was inactive: 2.46 µM.

`c1ccc2c(c1)nc1n2CNC1`: the GI50 was inactive: > 100 µM. Under `C=CCC12CCC(=O)C=C1CCC1(C2)OCCO1` (centres undefined) stands inactive: > 100 µM; under `CCOC(=O)Cn1sc2ncc([N+](=O)[O-])cc2c1=O`, inactive: 17.7 µM; under `C[N+]1(CCNP(=S)(NCC[N+]2(C)Cc3c(ccc4c3OCO4)C3C2c2cc4c(cc2C[C@@H]3O)OCO4)NCC[N+]2(C)Cc3c(ccc4c3OCO4)C3C2c2cc4c(cc2C[C@@H]3O)OCO4)Cc2c(ccc3c2OCO3)C2C1c1cc3c(cc1C[C@H]2O)OCO3` (some centres undefined), active: < 0.00191 µM. Turning to `CCCCCCCCCCCCCCCCCCC1=C(O)C(=O)C=C(OC)C1=O`, the GI50 was inactive: > 100 µM. Consider `O=S(=O)(OI(O)CC(F)(F)F)C(F)(F)F`, for which the GI50 is inactive: > 100 µM. With `O=c1c(Cc2c(O)ccc3ccccc23)nnc2sc(-c3nn4c(=O)c(Cc5c(O)ccc6ccccc56)nnc4s3)nn12` the figure was inactive: > 100 µM; with `O=C1C=C(OCCCl)C(=O)c2c(O)ccc(O)c21`, inactive: 1.73 µM. On to `C=CCN1C(=O)/C(=C/c2ccc(Cl)cc2)N=C1SC/C=C/C`, for which the GI50 was inactive: 75.2 µM. Take `Oc1nc2c(c(-c3ccc(Br)cc3)n1)COC/C2=C\c1ccc(Br)cc1`: the GI50 was inactive: 24.1 µM.

Turning to `O=C(/N=C1/OC(CN2CCOCC2)CN1C(=O)Nc1ccccc1)Nc1ccccc1` (centres undefined), the GI50 was inactive: > 100 µM. As to `CCOc1ccc2nc(NC(=O)/C(CC(=O)CC(C3=C(O)c4ccccc4CC3=O)c3ccccc3)=N\O)sc2c1` (centres undefined), the GI50 is inactive: > 100 µM. On to `Cc1cc(NS(=O)(=O)c2ccc(Nc3c4ccccc4nc4c(C(=O)Nc5ccc(S(N)(=O)=O)cc5)cccc34)cc2)no1`, for which the GI50 was inactive: 25.2 µM. Consider `NNC(=O)c1cc(Cl)ccc1NC(=O)C12CC3CC(CC(C3)C1)C2`, for which the GI50 was inactive: 21.5 µM.

With `CC[C@H]1OC([C@H](O)C/C=C\C#C[Si](C)(C)C)C/C=C\C[C@H]1O[Si](C)(C)C(C)(C)C` (some centres undefined), the GI50 is inactive: > 100 µM. As for `C#CCN(N=O)C(=O)NCCCCC(NC(C)=O)C(=O)NCc1ccccc1` (centres undefined), the GI50 is inactive: > 100 µM.

Take `CC(C)(C)N/N=C(\Cc1occc(=O)c1O)C(=O)Nc1ccc([N+](=O)[O-])cc1[N+](=O)[O-]`: the GI50 was inactive: > 100 µM. For `COc1ccc(OC(C(=O)O)C(C)C)c2c1CCCC2=O` (centres undefined), the GI50 was inactive: > 100 µM. For `O=C(CN1CCCCC1)Nc1ccc2c(c1)C1Oc3ccccc3CC1CO2` (centres undefined), the GI50 was inactive: 51.8 µM. Regarding `CC(Cc1ccc2c(c1)OCO2)N(C)C(=O)C1=CCN(C)CC1` (centres undefined), the GI50 is inactive: > 100 µM. As for `Cc1cc2c(cc1C)C(=O)C1(C2)Cc2c(ccc(C)c2C)C1=O` (centres undefined), the GI50 was inactive: 65.2 µM. With `Cc1ccc(S(=O)(=O)Nc2cccc3c(=O)nc[nH]c23)cc1`, the GI50 is inactive: > 100 µM. In the case of `CC[n+]1cnc(N)c2c(-c3ccc(Cl)cc3)cn(-c3ccc(C)cc3)c21`, the GI50 is inactive: 15 µM. Under `CN(C)c1ccc([S+]([O-])Nc2ccccc2)cc1` (centres undefined) stands inactive: 78.5 µM; under `C/C(=N\NC(=O)C[N+](C)(C)C)c1sc(-c2cccnc2)nc1C`, inactive: > 100 µM; under `N#Cc1cnn2ccn(C3OC(COC(=O)c4ccccc4)C(OC(=O)c4ccccc4)C3OC(=O)c3ccccc3)c12` (centres undefined), inactive: > 31.6 µM. As for `Oc1ccc(C2Oc3cc(O)cc4c3C2c2cc(O)cc3c2C(c2cc(O)cc5c2C4C(c2ccc(O)cc2)O5)C(c2ccc(O)cc2)O3)cc1` (centres undefined), the GI50 is inactive: 9.51 µM.

As for `NC1CNC(=O)c2cscc21` (centres undefined), the GI50 is inactive: > 100 µM. In the case of `CC(C)[Si](CC1=CCCCC12C(=O)N(COCC[Si](C)(C)C)c1ccccc12)(C(C)C)C(C)C` (centres undefined), the GI50 is inactive: > 100 µM.

Take `CCC/C(Cl)=N\OC(=O)Nc1cccc(C(F)(F)F)c1`: the GI50 was inactive: > 100 µM. Under `NN/C(=N\c1ccc(Cl)cc1)NS(=O)(=O)c1ccc(S(=O)(=O)c2ccccc2)s1` stands inactive: 21 µM. As for `C=C(Cl)/C(=C\Br)CCC(Cl)C(C)C.C=C(Cl)/C(=C\Cl)CCC(Cl)C(C)C` (centres undefined), the GI50 is inactive: 15.4 µM.

For the compound `CC(=O)n1nnc2ccc([N+](=O)[O-])cc21`, the GI50 was inactive: > 100 µM. Under `COC(=O)c1c(C)cccc1C1CN=NC12Cc1ccc(C)cc1C2=O` (centres undefined) stands inactive: 49.9 µM; under `CCCCCCCCC/C=C1\CCC(CN(C)C)C1=O` (centres undefined), inactive: 3.56 µM; under `O=c1cc(/C=C/c2ccc(O)c(O)c2)oc(/C=C/c2ccc(O)c(O)c2)c1`, inactive: 4.82 µM. With `CCOC(=O)/C(Br)=C1\OC(=O)c2ccccc2-c2ccccc21` the figure was inactive: 63.7 µM; with `C[C@]12CC[C@H](O)CC1=CC[C@@H]1C2CC[C@]2(C)C(=O)N(N)C(=O)CC12` (some centres undefined), inactive: > 100 µM; with `COC1OC(C)C(OCc2ccccc2)C(OS(=O)(=O)c2ccc(C)cc2)C1OS(=O)(=O)c1ccc(C)cc1` (centres undefined), inactive: > 100 µM.

Take `NC1=NC(NCC2(CO)CCC2)=CC(OCC2(CO)CCC2)N1` (centres undefined): the GI50 is inactive: > 100 µM. Regarding `Cc1ccc(S(=O)(=O)C2=c3nc4ccccc4cc3=C3C(=O)c4ccccc4C(=O)C32)cc1` (centres undefined), the GI50 was inactive: 99.3 µM. In the case of `COc1cc2c(cc1OC)CCN=C2`, the GI50 was inactive: > 100 µM. Turning to `Cc1ccc(SC(CCC(Sc2ccc(C)cc2)Sc2ccc(C)cc2)Sc2ccc(C)cc2)cc1`, the GI50 is inactive: > 100 µM. In the case of `CCOC(=O)C(C(=O)OCC)c1ccc([N+](=O)[O-])o1`, the GI50 is inactive: 71.8 µM. Consider `OCC(O)COc1c(Cl)cc(Cl)cc1Cl` (centres undefined), for which the GI50 was inactive: > 100 µM. Turning to `S=C(N/N=C/c1ccccn1)N1CC2CCC(CC2)C1`, the GI50 is active: < 0.0156 µM. On to `CC(C)n1c(=O)n(-c2ccccc2)n(C(C)(C)C)c1=O`, for which the GI50 is inactive: > 100 µM. In the case of `Nc1ccn(CCOC(c2ccccc2)P(=O)(O)O)c(=O)n1` (centres undefined), the GI50 is inactive: > 100 µM. As to `O=c1[nH]cnc2[nH]nnc12`, the GI50 was inactive: 57.4 µM. With `COc1cc(C2c3cc4c(cc3[C@@H](NCCN3CCCCC3)C3COC(=O)[C@H]23)OCO4)cc(OC)c1O` (some centres undefined), the GI50 is inactive: 3.14 µM. Regarding `C[C@@H]1[C@H](C)N1CC(O)Cn1ccnc1[N+](=O)[O-]` (some centres undefined), the GI50 is inactive: > 100 µM. In the case of `CCCC(=O)N[C@H]1CCc2cc(OC)c(OC)c(OC)c2-c2ccc(SC)c(=O)cc21`, the GI50 is active: < 0.01 µM. With `Cc1ccnc2nc(-c3ccc(F)cc3)cc(O)c12` the figure was inactive: 58.2 µM. Consider `COc1cc(/C=C2\CC/C(=C\c3cc(OC)c(O)c(OC)c3)C2=O)cc(OC)c1O`, for which the GI50 is inactive: 2.82 µM.
